These are yes or no findings as the source states them, for the method shown. For some assays here: In cells and extracts the contact can be indirect. Some binding calls cover weakened binding; strength is not graded here. For some assays here: Tags and fused reporters may be left off the sequences shown.
Assays:
[1] = target: T1, GFP-ARD1 (human) (UniProt P41227); experiment: co-IP; HT1080 cells co-transfected (4 µg each plasmid); IP with anti-GFP or anti-ARD1, blot with anti-HA or anti-MLCK, and cross-checked in reverse; in Fig. 2A cells treated with 1 µM ionomycin and 30 nM PMA for 8 h
T1 sequence: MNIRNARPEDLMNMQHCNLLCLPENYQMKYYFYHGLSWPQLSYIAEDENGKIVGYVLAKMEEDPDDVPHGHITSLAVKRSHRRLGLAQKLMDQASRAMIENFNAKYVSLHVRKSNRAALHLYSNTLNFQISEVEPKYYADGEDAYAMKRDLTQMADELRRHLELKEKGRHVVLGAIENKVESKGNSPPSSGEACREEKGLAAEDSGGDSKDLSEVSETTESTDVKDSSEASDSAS

Sequences of proteins named here, by UniProt entry; tags and fusion partners are left off. A change or cut given only in a name is not applied to a line headed by its entry. A line that says so, or that is headed by a name, gives the form on record, which may keep a tag or linker. Residues count along the entry.
Myc-MLCK_B (Q15746, residues 272-666): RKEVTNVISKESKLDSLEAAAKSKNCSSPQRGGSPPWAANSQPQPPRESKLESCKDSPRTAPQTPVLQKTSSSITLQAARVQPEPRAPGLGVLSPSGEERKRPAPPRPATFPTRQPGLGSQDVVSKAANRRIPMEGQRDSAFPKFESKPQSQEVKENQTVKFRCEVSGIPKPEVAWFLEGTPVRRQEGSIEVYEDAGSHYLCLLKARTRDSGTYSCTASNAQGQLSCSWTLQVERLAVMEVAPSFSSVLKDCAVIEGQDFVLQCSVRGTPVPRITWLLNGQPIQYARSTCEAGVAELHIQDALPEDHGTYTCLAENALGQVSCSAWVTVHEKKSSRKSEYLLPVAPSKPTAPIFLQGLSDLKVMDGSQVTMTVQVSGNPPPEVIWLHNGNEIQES
full-length long MLCK variant 2 (Q15746-2, form named): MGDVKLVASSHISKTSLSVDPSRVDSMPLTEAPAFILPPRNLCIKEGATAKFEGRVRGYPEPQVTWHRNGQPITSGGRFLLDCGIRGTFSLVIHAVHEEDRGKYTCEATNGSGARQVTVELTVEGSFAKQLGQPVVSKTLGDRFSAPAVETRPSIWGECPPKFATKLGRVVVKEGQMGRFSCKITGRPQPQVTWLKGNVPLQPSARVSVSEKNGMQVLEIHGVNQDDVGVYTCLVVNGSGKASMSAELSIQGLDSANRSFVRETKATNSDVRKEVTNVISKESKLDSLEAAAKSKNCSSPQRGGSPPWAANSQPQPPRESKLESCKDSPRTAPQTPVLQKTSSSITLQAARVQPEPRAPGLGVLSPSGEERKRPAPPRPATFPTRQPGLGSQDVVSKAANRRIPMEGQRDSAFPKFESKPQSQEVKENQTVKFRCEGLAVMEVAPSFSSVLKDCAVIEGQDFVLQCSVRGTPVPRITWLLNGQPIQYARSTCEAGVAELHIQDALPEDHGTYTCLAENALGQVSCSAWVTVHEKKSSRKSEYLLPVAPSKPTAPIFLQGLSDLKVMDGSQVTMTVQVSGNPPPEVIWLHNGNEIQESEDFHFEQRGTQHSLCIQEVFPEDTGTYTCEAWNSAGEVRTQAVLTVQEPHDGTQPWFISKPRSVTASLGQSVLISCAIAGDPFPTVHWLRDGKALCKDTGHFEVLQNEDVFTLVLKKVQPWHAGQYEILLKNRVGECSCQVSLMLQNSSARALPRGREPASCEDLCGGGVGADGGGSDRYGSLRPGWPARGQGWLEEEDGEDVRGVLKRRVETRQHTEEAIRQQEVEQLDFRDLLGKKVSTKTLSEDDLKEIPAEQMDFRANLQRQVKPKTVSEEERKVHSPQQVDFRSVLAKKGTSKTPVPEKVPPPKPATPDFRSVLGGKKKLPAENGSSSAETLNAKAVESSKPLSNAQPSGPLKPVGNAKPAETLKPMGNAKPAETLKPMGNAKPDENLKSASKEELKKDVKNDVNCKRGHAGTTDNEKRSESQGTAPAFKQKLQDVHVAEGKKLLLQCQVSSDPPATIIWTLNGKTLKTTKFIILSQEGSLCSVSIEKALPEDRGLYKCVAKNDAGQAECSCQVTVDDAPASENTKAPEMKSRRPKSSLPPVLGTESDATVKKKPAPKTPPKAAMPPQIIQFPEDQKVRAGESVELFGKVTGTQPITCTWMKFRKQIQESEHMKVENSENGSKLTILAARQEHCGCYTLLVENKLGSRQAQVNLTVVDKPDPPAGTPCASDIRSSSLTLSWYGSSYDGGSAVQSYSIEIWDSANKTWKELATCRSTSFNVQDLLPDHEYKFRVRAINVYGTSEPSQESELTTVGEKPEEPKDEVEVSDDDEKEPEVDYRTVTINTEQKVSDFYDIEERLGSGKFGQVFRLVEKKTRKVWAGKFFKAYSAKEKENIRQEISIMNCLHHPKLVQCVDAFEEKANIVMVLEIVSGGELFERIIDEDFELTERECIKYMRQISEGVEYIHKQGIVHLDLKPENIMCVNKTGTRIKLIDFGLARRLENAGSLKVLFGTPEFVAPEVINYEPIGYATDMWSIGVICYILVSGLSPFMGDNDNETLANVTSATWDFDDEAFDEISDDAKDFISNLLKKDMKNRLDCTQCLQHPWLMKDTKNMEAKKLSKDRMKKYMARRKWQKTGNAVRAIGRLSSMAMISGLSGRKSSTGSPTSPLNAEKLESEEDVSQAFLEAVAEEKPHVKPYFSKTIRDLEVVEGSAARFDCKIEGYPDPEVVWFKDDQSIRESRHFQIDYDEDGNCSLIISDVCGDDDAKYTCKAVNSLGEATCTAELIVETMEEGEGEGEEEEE

[2] = target: T2, hARD1 expressed from pcARD1 (human) (UniProt P41227); experiment: co-IP; HEK293 cells co-transfected with 4 µg each of pcARD1 and one pcMyc-MLCK fragment; IP with anti-ARD1, blot with anti-Myc
T2 sequence: T1 sequence

[3] = target: T3, His-tagged hARD1 (human) (UniProt P41227); experiment: pull-down; extracted Myc-MLCK peptides (1 µg) incubated with purified His-hARD1 (0.5 µg) at 4°C for 2 h; His-ARD1 pulled down on nickel-affinity beads, blot with anti-Myc; only the target purified
T3 sequence: T1 sequence

[4] = target: T2, hARD1 expressed from pcARD1 (human); experiment: condition: only cells treated with 20 µM BAPTA-AM for 3 h; co-IP; HT1080 cells co-transfected with pcARD1 and pcMLCK, treated with 20 µM BAPTA-AM for 3 h; IP with anti-ARD1
[5] = target: T2, hARD1 expressed from pcARD1 (human); experiment: co-IP; HT1080 cells co-transfected (4 µg each plasmid); IP with anti-GFP or anti-ARD1, blot with anti-HA or anti-MLCK, and cross-checked in reverse; in Fig. 2A cells treated with 1 µM ionomycin and 30 nM PMA for 8 h
[6] = target: T4, human arrest defective-1 (hARD1), full-length, yeast two-hybrid bait (human) (UniProt P41227); experiment: two-hybrid; yeast two-hybrid screen of a human liver cDNA library with full-length hARD1 as bait
T4 sequence: T1 sequence

HA-MLCK (357-578) (from UniProt Q15746-2 357-578) (domain or fragment)
binding [1]: binds

Myc-MLCK_B (from UniProt Q15746-1 272-666) (domain or fragment)
binding [2]: binds | binding [3]: binds

full-length long MLCK variant 1 (from UniProt Q15746-1 1-1914)
binding [4]: no binding | binding [5]: binds

full-length long MLCK variant 2 (from UniProt Q15746-2 1-1845)
binding [5]: binds

long MLCK transcript variant 2, aa. 357-578, two-hybrid library clone (from UniProt Q15746-2 357-578) (domain or fragment)
binding [6]: binds

long MLCK variant 1 phosphorylated at Ser439 (from UniProt Q15746-1 1-1914)
binding [5]: binds

Reference: publication PMC2758594
